Measured values published in the antibiotic and cytotoxicity screens of Wong et al. (2023).
This is one part of the list.

Tests used:
HSkMC = human skeletal muscle cells; test: cytotoxicity call (relative viability < 0.9); conditions: 10 µM
HepG2 = test: cytotoxicity call (relative viability < 0.9); conditions: 10 µM
S. aureus RN4220 = test: growth inhibition call (relative growth <= 0.2); conditions: 50 µM

SMILES | cytotoxicity call (HSkMC) | cytotoxicity call (HepG2) | growth inhibition call (S. aureus RN4220)
C[C@@H]1CCCCO[C@H](CN(C)C(=O)c2ccccc2)[C@@H](C)CN([C@@H](C)CO)C(=O)c2cc(NS(=O)(=O)c3ccccc3)ccc2O1 | inactive | inactive | inactive
C[C@H](CO)N1C[C@H](C)[C@H](CN(C)C(=O)Nc2cccc3ccccc23)OCCCC[C@H](C)Oc2ccc(NC(=O)C3CCCCC3)cc2C1=O | inactive | active | inactive
COc1ccc([C@@H]([C@H](Cc2ccccc2)OC(C)=O)N2C[C@@H]3C(=NO[C@H]3[C@@H](OC(C)=O)c3ccccc3)[C@@H]2Cc2ccccc2)cc1 | inactive | inactive | inactive
C[C@H]1CCCCO[C@@H](CN(C)C(=O)Nc2ccc(F)cc2)[C@@H](C)CN([C@@H](C)CO)C(=O)c2cc(NS(=O)(=O)c3ccc(Cl)cc3)ccc2O1 | inactive | inactive | inactive
C[C@H]1CN([C@@H](C)CO)C(=O)c2cccc(NC(=O)C3CCCCC3)c2O[C@@H]1CN(C)Cc1ccc(Cl)c(Cl)c1 | inactive | active | inactive
C[C@H]1CCCCO[C@@H](CN(C)C(=O)Nc2cccc3ccccc23)[C@@H](C)CN([C@@H](C)CO)C(=O)c2cc(NS(=O)(=O)c3ccc(F)cc3)ccc2O1 | inactive | inactive | inactive
CSC(=N)Nc1csc(C(F)(F)F)c1-c1ccccc1 | inactive | inactive | inactive
C[N+](C)(C)CC(O)CC(=O)O.[Cl-] (stereo not given) | inactive | inactive | inactive
Cc1noc(C)c1NC(=O)Nc1ccc2c(c1)C(=O)N([C@H](C)CO)C[C@@H](C)[C@H](CN(C)C(=O)Nc1cccc3ccccc13)OCCCC[C@H](C)O2 | inactive | inactive | inactive
C[C@@H]1CCCCO[C@@H](CN(C)S(=O)(=O)c2cccs2)[C@H](C)CN([C@H](C)CO)C(=O)c2cc(NC(=O)Nc3ccc(C(F)(F)F)cc3)ccc2O1 | inactive | inactive | inactive
Cc1cc([N+](=O)[O-])nn1CC(=O)N1CCOCC1 | inactive | inactive | inactive
CCO[C@@H]1OC(C(=O)N2CCN(Cc3ccccc3)CC2)=C[C@H](c2csc3ccccc23)[C@H]1CCCOC(=O)NCCCCCC(=O)NO | inactive | inactive | inactive
Cc1ccc2c(Cl)cc(Cl)c(O)c2n1 | inactive | inactive | inactive
C[C@H](CO)N1C[C@H](C)[C@H](CN(C)Cc2ccc(C(=O)O)cc2)Oc2ccc(NC(=O)c3ccncc3)cc2CC1=O | inactive | inactive | inactive
CC(=O)N[C@@H]1CC[C@@H](CCNC(=O)C2CC2)O[C@@H]1CO | inactive | inactive | inactive
CCCNC(=O)Nc1ccc2c(c1)C(=O)N(C)C[C@@H](OC)[C@H](C)CN(Cc1ccc(-c3ccccn3)cc1)[C@@H](C)CO2 | inactive | inactive | inactive
C[C@@H]1CCCCO[C@@H](CN(C)S(C)(=O)=O)[C@H](C)CN([C@H](C)CO)C(=O)c2cc(N(C)C)ccc2O1 | inactive | inactive | inactive
CC(C)CC#Cc1ccc2c(c1)O[C@@H](CN(C)C(=O)NC1CCCC1)[C@@H](C)CN([C@@H](C)CO)S2(=O)=O | inactive | inactive | inactive
CCOC(=O)[C@H](N)/C=C(\C)CP(=O)(O)O | inactive | inactive | inactive
COc1ccc(S(=O)(=O)N(C)C[C@H]2Oc3c(NC(=O)NC(C)C)cccc3C(=O)N([C@@H](C)CO)C[C@H]2C)cc1 | inactive | inactive | inactive
COC(=O)c1c(CC[C@@H](CO)NC(=O)N[C@H](Cc2ccccc2)Cn2cc(-c3ccccn3)nn2)oc(C(C)=O)c1C(=O)OC | inactive | inactive | inactive
COc1ccc(C#Cc2ccc3c(c2)[C@]2(C(=O)N3)[C@H](c3ccccc3OCCO)N3[C@H](c4ccccc4)[C@H](c4ccccc4)OC(=O)[C@H]3[C@@H]2C(=O)N2CCN(c3ncccn3)CC2)cc1 | inactive | active | inactive
Cc1ccc(S(=O)(=O)N(C)C[C@@H]2Oc3c(NS(C)(=O)=O)cccc3C(=O)N([C@H](C)CO)C[C@H]2C)cc1 | inactive | inactive | inactive
C[C@@H]1CN([C@@H](C)CO)S(=O)(=O)c2ccc(C3=CCCC3)cc2O[C@H]1CN(C)C(=O)C1CCOCC1 | inactive | inactive | inactive
O=S1(=O)N[C@H]2CCCN2c2ccccc21 | inactive | inactive | inactive
CC(C)CS(=O)(=O)C1CNC1 | inactive | inactive | inactive
COc1ccc(C#Cc2ccc3c(c2)O[C@H](CN(C)C(=O)c2ccccn2)[C@H](C)CN([C@H](C)CO)S3(=O)=O)cc1 | inactive | inactive | inactive
CNC[C@H]1OCCCC[C@@H](C)Oc2ccc(NS(=O)(=O)c3cn(C)cn3)cc2C(=O)N([C@@H](C)CO)C[C@@H]1C | inactive | inactive | inactive

SMILES | cytotoxicity call (HSkMC) | cytotoxicity call (HepG2) | growth inhibition call (S. aureus RN4220)
COc1ccc(NC(=O)N(C)C[C@@H]2Oc3ccc(NC(=O)Nc4ccc(C(F)(F)F)cc4)cc3CC(=O)N([C@@H](C)CO)C[C@@H]2C)cc1 | inactive | inactive | inactive
CCN(CC)CCOc1ccc2c(c1)C(=O)c1cc(OCCN(CC)CC)ccc1-2 | inactive | active | inactive
C[C@H](CO)N1C[C@H](C)[C@H](CN(C)S(=O)(=O)c2ccc(-n3cccn3)cc2)OCc2cn(nn2)CCCC1=O | inactive | inactive | inactive
C[C@@H]1CN([C@H](C)CO)C(=O)c2cccc(NC(=O)Nc3ccccc3)c2O[C@@H]1CN(C)Cc1ccc(Oc2ccccc2)cc1 | inactive | inactive | inactive
C[C@H](CO)N1C[C@H](C)[C@H](CN(C)S(=O)(=O)c2ccc(Cl)cc2)Oc2ccc(NS(=O)(=O)c3cn(C)cn3)cc2CC1=O | inactive | inactive | inactive
C[C@@H]1CCCCO[C@H](CN(C)C(=O)Nc2ccc(C(F)(F)F)cc2)[C@H](C)CN([C@@H](C)CO)C(=O)c2cc(NC(=O)CCC(F)(F)F)ccc2O1 | inactive | active | inactive
C[C@H]1CN([C@@H](C)CO)C(=O)c2cc(NC(=O)Cn3cnnn3)ccc2O[C@H]1CN(C)Cc1ccc(C(F)(F)F)cc1 | inactive | inactive | inactive
COCCOC(=O)N1C(=O)[C@@]2(c3cc(C#CC4=CCCCC4)ccc31)[C@H](c1ccccc1OCCO)N1[C@H](c3ccccc3)[C@H](c3ccccc3)OC(=O)[C@H]1[C@@H]2C(=O)NC[C@H](O)c1ccccc1 | inactive | inactive | inactive
Nc1nc(=O)c2c([nH]1)NCC(CNc1ccc(C(=O)NC(CCC(=O)[O-])C(=O)[O-])cc1)N2C=O.[Ca+2] (stereo not given) | inactive | inactive | inactive
COc1ccc([Si](C)(C)[C@H]2[C@H](CC(=O)N(CCO)Cc3ccccc3)O[C@@]3(C(=O)N(Cc4cccc(N5CCCCC5=O)c4)c4ccccc43)[C@@H]2C)cc1 | inactive | inactive | inactive
Cc1noc(C)c1S(=O)(=O)N(C)C[C@H]1OCCCC[C@@H](C)Oc2ccc(NS(C)(=O)=O)cc2C(=O)N([C@@H](C)CO)C[C@H]1C | inactive | inactive | inactive
Cc1[nH]c(=O)[nH]c(=O)c1CCC(=O)O | inactive | inactive | inactive
CON=C(C(=O)NC1C(=O)N2C(C(=O)OCOC(=O)C(C)(C)C)=C(C=Cc3scnc3C)CSC12)c1csc(N)n1 (stereo not given) | inactive | inactive | active
C[C@@H]1CN([C@H](C)CO)C(=O)c2cccc(NS(=O)(=O)c3cn(C)cn3)c2O[C@@H]1CN(C)S(C)(=O)=O | inactive | inactive | inactive
Cn1c(=O)c2c(nc(NCCO)n2C)n(C)c1=O | inactive | inactive | inactive
Cc1noc(C)c1NC(=O)Nc1ccc2c(c1)C(=O)N([C@@H](C)CO)C[C@@H](C)[C@@H](CN(C)Cc1ccc(C(=O)O)cc1)OCCCC[C@@H](C)O2 | inactive | inactive | inactive
CCCc1cc(=O)n2ncnc2[nH]1 | inactive | inactive | inactive
CCCC#Cc1cnc2c(c1)C(=O)N([C@H](C)CO)C[C@H](C)[C@H](CN(C)C(=O)c1ccc3c(c1)OCO3)O2 | inactive | inactive | inactive
C[C@H](CO)N1C[C@H](C)[C@@H](CN(C)C(=O)c2ccccn2)Oc2cc(C#Cc3ccc(F)cc3)ccc2S1(=O)=O | inactive | inactive | inactive
Cc1ccc(S(=O)(=O)Nc2ccc3c(c2)CC(=O)N([C@H](C)CO)C[C@@H](C)[C@H](CN(C)Cc2ccc(-c4ccccc4)cc2)O3)cc1 | active | active | inactive
COc1ccccc1C#Cc1ccc2c(c1)O[C@H](CN(C)Cc1ccncc1)[C@@H](C)CN([C@@H](C)CO)S2(=O)=O | active | active | inactive
CC(=O)NCCCC[C@@H]1NC(=O)[C@H]2C[C@@H](C(=O)NCCCC[N+](C)(C)C)[C@@H](c3ccc(O)cc3)N2C1=O | inactive | active | inactive
CCO[C@H]1OC(C(=O)N2CCOCC2)=C[C@@H](c2ccccc2)[C@@H]1CCCOC(=O)NCCCCCC(=O)NO | inactive | inactive | inactive
C[C@H](CO)N1C[C@H](C)[C@@H](CN(C)Cc2ccccn2)Oc2ncc(C#Cc3ccc(F)cc3)cc2C1=O | inactive | inactive | inactive
COCC(=O)N(C)C[C@@H]1Oc2cc(C#Cc3cccnc3)ccc2S(=O)(=O)N([C@H](C)CO)C[C@H]1C | inactive | inactive | inactive
C[C@@H]1CCCCO[C@H](CN(C)Cc2ccc(C(=O)O)cc2)[C@H](C)CN([C@H](C)CO)C(=O)c2cc(NS(=O)(=O)c3ccc(F)cc3)ccc2O1 | inactive | inactive | inactive
COc1nc(=NC(=O)NS(=O)(=O)Nc2cccc3cccnc23)nc(OC)[nH]1 | active | active | inactive
